This is an account of results in PMC9911399, “Two distinct binding modes provide the RNA-binding protein RbFox with extraordinary sequence specificity”.

Positions count from the first letter of the chain named. The list shows a part of the results.

First the molecules themselves.
T1: RBFOX1 RRM RbFoxmut (Fox-RRM*) (Homo sapiens, UniProt Q9NWB1 109-208, R118D;E147R;N151S;E152T)
T1 sequence: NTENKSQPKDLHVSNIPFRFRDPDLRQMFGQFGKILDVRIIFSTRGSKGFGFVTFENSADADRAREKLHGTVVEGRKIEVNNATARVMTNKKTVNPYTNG

B1: UUGGUCC (DNA:RNA)
RNA: GGGAGACCGGAAUUCAGAUUGUCCUUGGUCCUUAAAUCCCGUCGUAGCCACCA
DNA 1: CAATCTGAATTCCGGTCTCCC
DNA 2: TGGTGGCTACGACGGGATT
B2: UUCUACU (DNA:RNA)
RNA: B1 RNA with G27C, G28U, U29A, C31U
DNA 1: CAATCTGAATTCCGGTCTCCC
DNA 2: TGGTGGCTACGACGGGATT
B3: UUUUGAG (DNA:RNA)
RNA: B1 RNA with G27U, G28U, U29G, C30A, C31G
DNA 1: CAATCTGAATTCCGGTCTCCC
DNA 2: TGGTGGCTACGACGGGATT
B4: GGCGUAC (DNA:RNA)
RNA: B1 RNA with U25G, U26G, G27C, C30A
DNA 1: CAATCTGAATTCCGGTCTCCC
DNA 2: TGGTGGCTACGACGGGATT
B5: UAUCGAU (DNA:RNA)
RNA: B1 RNA with U26A, G27U, G28C, U29G, C30A, C31U
DNA 1: CAATCTGAATTCCGGTCTCCC
DNA 2: TGGTGGCTACGACGGGATT
B6: AACGCCG (DNA:RNA)
RNA: B1 RNA with U25A, U26A, G27C, U29C, C31G
DNA 1: CAATCTGAATTCCGGTCTCCC
DNA 2: TGGTGGCTACGACGGGATT
B7: AUCUGAC (DNA:RNA)
RNA: B1 RNA with U25A, G27C, G28U, U29G, C30A
DNA 1: CAATCTGAATTCCGGTCTCCC
DNA 2: TGGTGGCTACGACGGGATT
B8: GUCGAGU (DNA:RNA)
RNA: B1 RNA with U25G, G27C, U29A, C30G, C31U
DNA 1: CAATCTGAATTCCGGTCTCCC
DNA 2: TGGTGGCTACGACGGGATT
B9: GAAGCCC (DNA:RNA)
RNA: B1 RNA with U25G, U26A, G27A, U29C
DNA 1: CAATCTGAATTCCGGTCTCCC
DNA 2: TGGTGGCTACGACGGGATT
B10: AACAUUC (DNA:RNA)
RNA: B1 RNA with U25A, U26A, G27C, G28A, C30U
DNA 1: CAATCTGAATTCCGGTCTCCC
DNA 2: TGGTGGCTACGACGGGATT
B11: CCGUAUU (DNA:RNA)
RNA: B1 RNA with U25C, U26C, G28U, U29A, C30U, C31U
DNA 1: CAATCTGAATTCCGGTCTCCC
DNA 2: TGGTGGCTACGACGGGATT
B12: GAAACCA (DNA:RNA)
RNA: B1 RNA with U25G, U26A, G27A, G28A, U29C, C31A
DNA 1: CAATCTGAATTCCGGTCTCCC
DNA 2: TGGTGGCTACGACGGGATT
B13: GAGCAAU (DNA:RNA)
RNA: B1 RNA with U25G, U26A, G28C, U29A, C30A, C31U
DNA 1: CAATCTGAATTCCGGTCTCCC
DNA 2: TGGTGGCTACGACGGGATT
B14: AUGAGGC (DNA:RNA)
RNA: B1 RNA with U25A, G28A, U29G, C30G
DNA 1: CAATCTGAATTCCGGTCTCCC
DNA 2: TGGTGGCTACGACGGGATT
B15: GUAACAU (DNA:RNA)
RNA: B1 RNA with U25G, G27A, G28A, U29C, C30A, C31U
DNA 1: CAATCTGAATTCCGGTCTCCC
DNA 2: TGGTGGCTACGACGGGATT
B16: UCAUCGA (DNA:RNA)
RNA: B1 RNA with U26C, G27A, G28U, U29C, C30G, C31A
DNA 1: CAATCTGAATTCCGGTCTCCC
DNA 2: TGGTGGCTACGACGGGATT
B17: CUUUGGU (DNA:RNA)
RNA: B1 RNA with U25C, G27U, G28U, U29G, C30G, C31U
DNA 1: CAATCTGAATTCCGGTCTCCC
DNA 2: TGGTGGCTACGACGGGATT
B18: AGGCUGG (DNA:RNA)
RNA: B1 RNA with U25A, U26G, G28C, C30G, C31G
DNA 1: CAATCTGAATTCCGGTCTCCC
DNA 2: TGGTGGCTACGACGGGATT
B19: UCGUUUG (DNA:RNA)
RNA: B1 RNA with U26C, G28U, C30U, C31G
DNA 1: CAATCTGAATTCCGGTCTCCC
DNA 2: TGGTGGCTACGACGGGATT
B20: AAUGACC (DNA:RNA)
RNA: B1 RNA with U25A, U26A, G27U, U29A
DNA 1: CAATCTGAATTCCGGTCTCCC
DNA 2: TGGTGGCTACGACGGGATT

This test concerns the target T1, RBFOX1 RRM RbFoxmut (Fox-RRM*). Briefly: EMSA; HiTS-Eq, 1 nM pool, 10 min; buffer printed only for the single-RNA assays: 10 mM Tris pH 7.5, 150 mM NaCl, 3.4 mM EDTA, 0.001% NP-40, 30 C. Conditions: tags: His6 N-terminal (pET28a); label: 5' 32P. In short, it runs like this:
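A pool of RNA with 7 randomized nucleotides, 5′-radiolabelled and with DNA-annealed flanks, was equilibrated at 1 nM for 10 min in 50 µL with purified RbFox RRM, wild type or mutant, across increasing protein concentrations. Free RNA was separated by 8% native PAGE, excised, reverse-transcribed, barcoded by PCR and sequenced. Relative association constants were obtained from read-count changes of each RNA species versus the control reaction and normalised to the cognate motif.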
A general note: In EMSA bound probe runs differently from free probe, usually more slowly.
B1: the binding signal is 0.131 KA relative to UGCAUGU.

For the molecule B2, the binding signal was 0.0829 KA relative to UGCAUGU.

Consider B3, for which the binding signal was 0.114 KA relative to UGCAUGU.

In the case of B4, the binding signal was 0.0839 KA relative to UGCAUGU.

With B5, the binding signal was 0.0515 KA relative to UGCAUGU.

In the case of B6, the binding signal is 0.114 KA relative to UGCAUGU.

Take B7: the binding signal was 0.124 KA relative to UGCAUGU.

With B8, the binding signal is 0.137 KA relative to UGCAUGU.

In the case of B9, the binding signal is 0.0545 KA relative to UGCAUGU.

Take B10: the binding signal is 0.0602 KA relative to UGCAUGU.

On to B11, for which the binding signal is 0.0727 KA relative to UGCAUGU.

As for B12, the binding signal is 0.0514 KA relative to UGCAUGU.

With B13, the binding signal is 0.0522 KA relative to UGCAUGU.

With B14, the binding signal is 0.128 KA relative to UGCAUGU.

In the case of B15, the binding signal is 0.0942 KA relative to UGCAUGU.

In the case of B16, the binding signal is 0.0826 KA relative to UGCAUGU.

With B17, the binding signal was 0.0992 KA relative to UGCAUGU.

Take B18: the binding signal is 0.124 KA relative to UGCAUGU.

Turning to B19, the binding signal was 0.396 KA relative to UGCAUGU.

Regarding B20, the binding signal was 0.0968 KA relative to UGCAUGU.
